The data set deals with the molecule itself. Nature of the data set: cross-linking.

B1: G3BP1 S149E, purified recombinant (natural protein)
chain: not shown
For B1, the binding result is recorded as “binds”.

B2: G3BP1 S149A, purified recombinant (natural protein)
chain: not shown
For B2, the binding result is “binds”.

The record behind these values is publication PMC7448383 (Cell, 2020).
